Six molecules from article PMC12136788 can be followed below.

This is one part of the list.

Sequences and labels used below:
T1: UNK ZnF1-6 (called full-length) (human, UniProt Q9C0B0 30-357)
T1 sequence: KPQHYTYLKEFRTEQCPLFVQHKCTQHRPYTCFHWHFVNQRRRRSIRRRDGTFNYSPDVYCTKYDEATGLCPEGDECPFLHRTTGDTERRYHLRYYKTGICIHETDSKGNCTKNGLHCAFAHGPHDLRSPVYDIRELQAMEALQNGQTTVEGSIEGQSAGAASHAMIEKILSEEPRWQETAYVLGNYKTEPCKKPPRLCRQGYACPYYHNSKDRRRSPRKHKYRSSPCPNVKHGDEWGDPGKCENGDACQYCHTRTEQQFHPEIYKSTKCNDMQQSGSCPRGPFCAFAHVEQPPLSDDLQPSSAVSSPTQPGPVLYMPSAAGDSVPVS

B1: chrX:152990254:152991598:-|CDS|ENSG00000198883|control|control|control (ssRNA)
RNA: GGGAGUUCUACAGUCCGACGAUCAUACAGGGAGGCUUACCCCCAUUAGUGAAACGCAGGCGGCUGUUAGGCAGUGAAAGCACUAGGGGAGAAGACCAUGGCCAGGCCACGUAUCCCAAGGCUGAAAACCAGACUCCAGGCAGGCAACAGAGGAUUGAGCAUCA
B2: chr2:27041412:27041530:+|3pUTR|ENSG00000119777|msi1_unk|total|mutant (ssRNA)
RNA: GGGAGUUCUACAGUCCGACGAUCACUUCAAAAUGCCCAGCCUGCCCCAAAUGCCUCUAAGCCCCUCCCUGUCCCCUCCCUUGCCGUCCUACUUCUUCCAACUUUCCAUUCCCCAUCAUGCUGGGGGUCUUGGUCACAAGGCUCCAACAGAGGAUUGAGCAUCA
B3: chr10:67912576:67912687:+|CDS|ENSG00000096717|unk|total|mutant (ssRNA)
RNA: GGGAGUUCUACAGUCCGACGAUCUUUUGAUGCCGAGCUUCUUGGAGACUGUGAUGUCAUAAUUAAUGAAUUGUGUCACCGGUCCGGUGGUGAAUAUGCCAAACUUUGCUGUAACCCUGUAAAGCUUUCAGAAAUUACUGAAAACAACAGAGGAUUGAGCAUCA
B4: ENSG00000136451:be:win_3101|3pUTR|ENSG00000136451|bound_else_gene|NA|bound_elsewhere_windowed (ssRNA)
RNA: GGGAGUUCUACAGUCCGACGAUCUUCCAUUUAUACCCUACUGUGUCAGUUCAAGCAUCAAAAUACCUUGCAUCUGAGACAGACUUCCUACAUCAGGGACAGGUAUCUGUGUGUCAUUAUACAAAACAGUUCUAGGGGGUUGAACAACAGAGGAUUGAGCAUCA
B5: chr17:75827259:75827360:-|3pUTR|ENSG00000092929|unk|total|mutant (ssRNA)
RNA: GGGAGUUCUACAGUCCGACGAUCGGACAGUUUGGCUGCUGUGUCUGCUGCGCACGCCCCCUCCCCGGACAGCACCUGCCACCCCGAAACUUUCUCCGCAAAAAAAUUAAUAAAAACAAAUCCAUUGUCCUCUUAAAAUAUGCCCAACAGAGGAUUGAGCAUCA
B6: chr14:44928120:44928223:-|3pUTR|ENSG00000179454|unk|FALSE|unique (ssRNA)
RNA: GGGAGUUCUACAGUCCGACGAUCUAGUACAGCAGGCCUCCCAGUGCUGAUGUAAAUAUUUGAGCAGUGUUUAGUACCAUUCUUAGUGCAUAUUAAUUUUUUUAUAUAUCCUUAUAAUUUUAGUUUUUUAAGAUCUUUGCUUUUCAACAGAGGAUUGAGCAUCA

In the assay the target is T1, UNK ZnF1-6 (called full-length). The assay is described as follows: nsRBNS (natural sequence RNA bind-n-seq); RBNS binding buffer (assumed for nsRBNS): 25 mM Tris pH 7.5, 150 mM KCl, 3 mM MgCl2, 0.01% Triton X-100, 500 ug/ml BSA, 20 U/ml SUPERase-In, 4 C; UNK is unkempt and MSI1 is Musashi-1; names of the RNAs are library labels; protein concentration not given here; high values mean tight binding.
B1: the binding signal stood at 1.23 enrichment R. Consider B2, for which the binding signal turned out to be 1.05 enrichment R.

For the molecule B3, the binding signal worked out at 0.226 enrichment R.

For B4, the binding signal was found to be 0.463 enrichment R. To B5 belongs 0.989 enrichment R; to B6, 213 enrichment R.
